According to US11685745B2, “Substituted benzoxazole and benzofuran compounds as PDE7 inhibitors” (Dart NeuroScience, LLC, priority 2017, dated 2023):

The compounds below were run against N-terminal truncated recombinant human PDE7B enzyme (Homo sapiens (Human), UniProt Q9NP56) (assay: biochemical).

| SMILES | IC50 |
| --- | --- |
| O=C1Nc2c(Cl)cc3nc(CN4CCC5(CC4)COC5)oc3c2C2(CCCCC2)N1 [Example 85, 5-Chloro-2-{2-oxa-7-azaspiro[3.5]nonan-7-ylmethyl}-7,8-dihydro-6H-spiro[[1,3]oxazolo[5,4-f]quinazoline-9,1′-cyclohexane]-7-one] | 10 to 100 nM |
| CCOCC1(CNC(=O)c2cc3cc(Cl)c4c(c3o2)C2(CCCCC2)NC(=O)N4)CC1 [Example 361, 5′-Chloro-N-{[1-(ethoxymethyl)cyclopropyl]methyl}-7′-oxo-7′,8′-dihydro-6′H-spiro[cyclohexane-1,9′-furo[2,3-f]quinazoline]-2′-carboxamide] | 10 to 100 nM |
| CN(C)CC1CCN(C(=O)c2cc3cc(Cl)c4c(c3o2)C2(CCCCC2)NC(=O)N4)CC1 [Example 443, 5′-Chloro-2′-{4-[(dimethylamino)methyl]piperidine-1-carbonyl}-7′,8′-dihydro-6′H-spiro[cyclohexane-1,9′-furo[2,3-f]quinazoline]-7′-one] | 10 to 100 nM |
| O=C1Nc2c(Cl)cc3nc(CN4C[C@@H]5C[C@H]4CO5)oc3c2C2(CCC(F)(F)CC2)N1 [Example 168, 5-Chloro-4′,4′-difluoro-2-[(1S,4S)-2-oxa-5-azabicyclo[2.2.1]heptan-5-ylmethyl]-7,8-dihydro-6H-spiro[[1,3]oxazolo[5,4-f]quinazoline-9,1′-cyclohexane]-7-one] | 100 to 1000 nM |
| COCCOCc1nc2cc(Cl)c3c(c2o1)C1(CCCCC1)NC(=O)N3 [Example 5, 5′-Chloro-2′-((2-methoxyethoxy)methyl)-6′H-spiro[cyclohexane-1,9′-oxazolo[5,4-f]quinazolin]-7′(8′H)-one] | 10 to 100 nM |
| COc1cccc(CCNC(=O)c2cc3cc(Cl)c4c(c3o2)C2(CCCCC2)NC(=O)N4)c1 [Example 450, 5′-Chloro-N-[2-(3-methoxyphenyl)ethyl]-7′-oxo-7′,8′-dihydro-6′H-spiro[cyclohexane-1,9′-furo[2,3-f]quinazoline]-2′-carboxamide] | 10 to 100 nM |
| O=C1Nc2c(Cl)cc3cc(CN4CCn5c(nnc5C(F)(F)F)C4)oc3c2C2(CCCCC2)N1 [Example 521, 5′-Chloro-2′-{[3-(trifluoromethyl)-5H,6H,7H,8H-[1,2,4]triazolo[4,3-a]pyrazin-7-yl]methyl}-7′,8′-dihydro-6′H-spiro[cyclohexane-1,9′-furo[2,3-f]quinazoline]-7′-one] | 100 to 1000 nM |
| O=C1Nc2c(Cl)cc3nc(C(=O)NCC(F)(F)CO)oc3c2C2(CCCCC2)N1 [Example 217, 5-Chloro-N-(2,2-difluoro-3-hydroxypropyl)-7-oxo-7,8-dihydro-6H-spiro[[1,3]oxazolo[5,4-f]quinazoline-9,1′-cyclohexane]-2-carboxamide] | 10 to 100 nM |
| COC(=O)c1nc2cc(Cl)c3c(c2o1)C1(CCC(F)(F)CC1)NC(=O)N3 [Example 9, Methyl 5′-chloro-4,4-difluoro-7′-oxo-7′,8′-dihydro-6′H-spiro[cyclohexane-1,9′-oxazolo[5,4-f]quinazoline]-2′-carboxylate] | 100 to 1000 nM |
| CCO[C@@H]1CCN(Cc2nc3cc(Cl)c4c(c3o2)C2(CCCCC2)NC(=O)N4)C1 [Example 119, 5-Chloro-2-{[(3R)-3-ethoxypyrrolidin-1-yl]methyl}-7,8-dihydro-6H-spiro[[1,3]oxazolo[5,4-f]quinazoline-9,1′-cyclohexane]-7-one] | 10 to 100 nM |
| O=C1Nc2c(Cl)cc3nc(CN4CC5CC4CO5)oc3c2C2(CCCCC2)N1 (centres unmarked) [Example 87, 5-Chloro-2-{2-oxa-5-azabicyclo[2.2.1]heptan-5-ylmethyl}-7,8-dihydro-6H-spiro[[1,3]oxazolo[5,4-f]quinazoline-9,1′-cyclohexane]-7-one] | 10 to 100 nM |
| C[C@@H]1CN(Cc2cc3cc(Cl)c4c(c3o2)C2(CCCCC2)NC(=O)N4)C[C@H](C)O1 [Example 503, 5′-Chloro-2′-{[(2R,6S)-2,6-dimethylmorpholin-4-yl]methyl}-7′,8′-dihydro-6′H-spiro[cyclohexane-1,9′-furo[2,3-f]quinazoline]-7′-one] | 10 to 100 nM |
| CO[C@@H]1CCCN(C(=O)c2nc3cc(Cl)c4c(c3o2)C2(CCCCC2)NC(=O)N4)C1 [Example 200, 5-Chloro-2-[(3R)-3-methoxypiperidine-1-carbonyl]-7,8-dihydro-6H-spiro[[1,3]oxazolo[5,4-f]quinazoline-9,1′-cyclohexane]-7-one] | 10 to 100 nM |
| CN1CCN(C(=O)c2nc3cc(Cl)c4c(c3o2)C2(CCCCC2)NC(=O)N4)CC1 [Example 182, 5-Chloro-2-(4-methylpiperazine-1-carbonyl)-7,8-dihydro-6H-spiro[[1,3]oxazolo[5,4-f]quinazoline-9,1′-cyclohexane]-7-one] | 10 to 100 nM |
| CN1CCC(OCc2nc3cc(Cl)c4c(c3o2)C2(CCCCC2)NC(=O)N4)CC1 [Example 178, 5-Chloro-2-{[(1-methylpiperidin-4-yl)oxy]methyl}-7,8-dihydro-6H-spiro[[1,3]oxazolo[5,4-f]quinazoline-9,1′-cyclohexane]-7-one] | 100 to 1000 nM |
| COc1ccc(CN(C)C(=O)c2cc3cc(Cl)c4c(c3o2)C2(CCCCC2)NC(=O)N4)c(OC)c1 [Example 285, 5′-Chloro-N-[(2,4-dimethoxyphenyl)methyl]-N-methyl-7′-oxo-7′,8′-dihydro-6′H-spiro[cyclohexane-1,9′-furo[2,3-f]quinazoline]-2′-carboxamide] | 10 to 100 nM |

| SMILES | IC50 |
| --- | --- |
| Cc1nc2cc(Cl)c3c(c2o1)C1(CCC(F)(F)CC1)NC(=O)N3 [Example 11, 5′-Chloro-4,4-difluoro-2′-methyl-6′H-spiro[cyclohexane-1,9′-oxazolo[5,4-f]quinazolin]-7′(8′H)-one] | 100 to 1000 nM |
| CNC(=O)C1CCN(Cc2cc3cc(Cl)c4c(c3o2)C2(CCCCC2)NC(=O)N4)CC1 [Example 493, 1-{5′-Chloro-7′-oxo-7′,8′-dihydro-6′H-spiro[cyclohexane-1,9′-furo[2,3-f]quinazoline]-2′-ylmethyl}-N-methylpiperidine-4-carboxamide] | 100 to 1000 nM |
| O=C1Nc2c(Cl)cc3cc(C(=O)N4CCN(Cc5ccccc5)CC4)oc3c2C2(CCCCC2)N1 [Example 307, 2′-(4-Benzylpiperazine-1-carbonyl)-5′-chloro-7′,8′-dihydro-6′H-spiro[cyclohexane-1,9′-furo[2,3-f]quinazoline]-7′-one] | 10 to 100 nM |
| CCCc1nc2cc(Cl)c3c(c2o1)C1(CCCCC1)NC(=O)N3 [Example 16, 5′-Chloro-2′-propyl-6′H-spiro[cyclohexane-1,9′-oxazolo[5,4-f]quinazolin]-7′(8′H)-one] | 10 to 100 nM |
| O=C1Nc2c(Cl)cc3nc(C(=O)NC4CCCC4(F)F)oc3c2C2(CCCCC2)N1 (centres unmarked) [Example 214, 5-Chloro-N-(2,2-difluorocyclopentyl)-7-oxo-7,8-dihydro-6H-spiro[[1,3]oxazolo[5,4-f]quinazoline-9,1′-cyclohexane]-2-carboxamide] | 100 to 1000 nM |
| CN(Cc1nc2cc(Cl)c3c(c2o1)C1(CCCCC1)NC(=O)N3)CC1(C)COC1 [Example 82, 5-Chloro-2-({methyl[(3-methyloxetan-3-yl)methyl]amino}methyl)-7,8-dihydro-6H-spiro[[1,3]oxazolo[5,4-f]quinazoline-9,1′-cyclohexane]-7-one] | 10 to 100 nM |
| O=C1Nc2c(Cl)cc3cc(C(=O)N4CCN(Cc5ccco5)CC4)oc3c2C2(CCCCC2)N1 [Example 357, 5′-Chloro-2′-[4-(furan-2-ylmethyl)piperazine-1-carbonyl]-7′,8′-dihydro-6′H-spiro[cyclohexane-1,9′-furo[2,3-f]quinazoline]-7′-one] | 10 to 100 nM |
| O=C1Nc2c(Cl)cc3cc(C(=O)N4CCCCC4)oc3c2C2(CCCCC2)N1 [Example 234, 5′-Chloro-2′-(piperidine-1-carbonyl)-7′,8′-dihydro-6′H-spiro[cyclohexane-1,9′-furo[2,3-f]quinazoline]-7′-one] | 10 to 100 nM |
| O=C1Nc2c(Cl)cc3cc(CNC4CCNC4)oc3c2C2(CCCCC2)N1 (centres unmarked) [Example 572, 5′-Chloro-2′-{[(pyrrolidin-3-yl)amino]methyl}-7′,8′-dihydro-6′H-spiro[cyclohexane-1,9′-furo[2,3-f]quinazoline]-7′-one] | 100 to 1000 nM |
| CN(Cc1cc(C(C)(C)C)[nH]n1)C(=O)c1cc2cc(Cl)c3c(c2o1)C1(CCCCC1)NC(=O)N3 [Example 306, N-[(5-tert-Butyl-1H-pyrazol-3-yl)methyl]-5′-chloro-N-methyl-7′-oxo-7′,8′-dihydro-6′H-spiro[cyclohexane-1,9′-furo[2,3-f]quinazoline]-2′-carboxamide] | 10 to 100 nM |
| CN(C)C(=O)CCNC(=O)c1cc2cc(Cl)c3c(c2o1)C1(CCCCC1)NC(=O)N3 [Example 353, 3-{5′-Chloro-7′-oxo-7′,8′-dihydro-6′H-spiro[cyclohexane-1,9′-furo[2,3-f]quinazoline]-2′-ylformamido}-N,N-dimethylpropanamide] | 100 to 1000 nM |
| O=C1Nc2c(Cl)cc3nc(CN4CCC5(CCOC5)CC4)oc3c2C2(CCCCC2)N1 [Example 49, 5-Chloro-2-{2-oxa-8-azaspiro[4.5]decan-8-ylmethyl}-7,8-dihydro-6H-spiro[[1,3]oxazolo[5,4-f]quinazoline-9,1′-cyclohexane]-7-one] | 10 to 100 nM |
| O=C1Nc2c(Cl)cc3cc(CN4CCN(C(=O)N5CCCC5)CC4)oc3c2C2(CCCCC2)N1 [Example 538, 5′-Chloro-2′-{[4-(pyrrolidine-1-carbonyl)piperazin-1-yl]methyl}-7′,8′-dihydro-6′H-spiro[cyclohexane-1,9′-furo[2,3-f]quinazoline]-7′-one] | 10 to 100 nM |
| Cn1ccc(CNCc2cc3cc(Cl)c4c(c3o2)C2(CCCCC2)NC(=O)N4)n1 [Example 470, 5′-Chloro-2′-({[(1-methyl-1H-pyrazol-3-yl)methyl]amino}methyl)-7′,8′-dihydro-6′H-spiro[cyclohexane-1,9′-furo[2,3-f]quinazoline]-7′-one] | 10 to 100 nM |
| O=C1Nc2c(Cl)cc3cc(C(=O)N4CCCCC4CO)oc3c2C2(CCCCC2)N1 (centres unmarked) [Example 414, 5′-Chloro-2′-[2-(hydroxymethyl)piperidine-1-carbonyl]-7′,8′-dihydro-6′H-spiro[cyclohexane-1,9′-furo[2,3-f]quinazoline]-7′-one] | 10 to 100 nM |
| O=C1Nc2c(Cl)cc3cc(CNC4CCS(=O)(=O)C4)oc3c2C2(CCCCC2)N1 (centres unmarked) [Example 531, 3-({5′-Chloro-7′-oxo-7′,8′-dihydro-6′H-spiro[cyclohexane-1,9′-furo[2,3-f]quinazoline]-2′-ylmethyl}amino)-thiolane-1,1-dione] | 10 to 100 nM |
